Some of the results follow. At the low end of the ranking the order means little.
What follows are sequences tested against T1, GST-Rok (full length) (UniProt O34857) (assay: protein binding microarray). Conditions: Rok is a gene silencer of Bacillus subtilis; high values mean tight binding; most listed sequences are background and not binding sites; double strand, one strand shown.
T1 sequence: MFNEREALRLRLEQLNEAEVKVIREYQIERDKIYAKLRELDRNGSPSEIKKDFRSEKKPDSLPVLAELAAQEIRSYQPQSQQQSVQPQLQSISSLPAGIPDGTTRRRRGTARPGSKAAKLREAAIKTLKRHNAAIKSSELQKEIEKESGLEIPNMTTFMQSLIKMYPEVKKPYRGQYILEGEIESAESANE
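Further: rank score from −0.5 (least bound) to 0.5 (best bound).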

Sequence | binding signal [E-score]
GGGCTGCA | -0.287
CCTCAGGC | -0.359
GCCCCGCC | -0.407
ATGCATCA | 0.144
CAAATGCA | -0.0824
AGGACGAT | -0.175
GGCCTCAC | -0.29
ATCTGGTA | 0.107
CGGTCGCC | -0.339
AGATGTTC | 0.114
ACCAGTAC | 0.149
ATGCCATC | -0.13
AGTTTCAT | 0.217
CGTCGTCC | -0.195
AAAGGCAA | -0.148
TCTGTACA | 0.0326
CATATAGC | 0.125
ACGAACGC | -0.081
ATTGGGGA | -0.141
AGTCTACC | -0.00746
AACAAAGA | 0.174
CAGCCCAA | -0.236
CCGCCCTA | -0.212
GAGCACTC | -0.0337
GGCCTCTA | -0.222

Sequence | binding signal [E-score]
AATCCGCT | -0.000445
AACATAGA | 0.206
ACAGGAAC | -0.0229
TCCTTAGA | 0.0193
CAGTGCTC | -0.394
ATCATTCC | 0.111
GGCTCGGA | -0.455
GGCGAATA | -0.0656
GCTGACCA | -0.135
GTCGTGTA | 0.126
ATAAGAAC | 0.0811
TCGCGGCA | -0.187
TCTAGTCA | 0.183
AGGATTAC | -0.0868
AAGGCTCC | -0.234
CGAACGTA | 0.0863
TATGATAA | 0.267
GCATAGCA | -0.0988
ATAAATAT | 0.339
GCACGGCA | -0.074
GGAATGCA | -0.274
CAAATAGC | 0.209
TAAGCGCA | -0.154
AGCGGATA | 0.286
ACGCGGTG | -0.342

Sequence | binding signal [E-score]
TACCAACA | -0.000134
AATAATAG | 0.388
GTGGAGTA | 0.107
TGCCTTAA | -0.122
AGAAGCCC | -0.321
CTCCCGAG | -0.27
AGGCGTTC | -0.262
AAAAGTTT | 0.0316
CCTGAGGC | -0.253
CCCAATTA | -0.0953
TCCCAGGA | 0.00729
ACACTTCT | 0.218
GTTAGCGA | -0.0108
ATAGCGAA | 0.216
AGCGGGTA | -0.098
CTGGTCCA | -0.166
ATACGGAA | 0.156
AATAATAA | 0.364
GATCCCGC | 0.00157
CATAGTCA | 0.0308
GGCGTGAC | -0.163
AGGGGTAC | -0.221
ACTTCGTA | 0.218
GAAAAACA | 0.0387
AGAGACCT | -0.154

Sequence | binding signal [E-score]
CTCGAGAC | 0.0177
AGTGTTTG | 0.11
AACTGCGT | -0.11
ATAGAACC | 0.202
AAAGGATT | -0.227
CTTGTATC | 0.0396
AGTTTATC | 0.209
CAAGCCCG | -0.236
ATTGTATC | 0.266
GTGGCACA | -0.204
ACGCTGGA | -0.115
GCGATACC | 0.0255
GTGACCAA | -0.121
AGAACACT | 0.0519
AATTTACA | 0.305
CATGCGTA | -0.0764
AGACATCA | 0.0172
GGACGCCC | -0.466
ACTGTCCA | 0.0579
GATATTAA | 0.365
GGATATAA | 0.271
AAGCCCAA | -0.205
CTGTGTCA | -0.136
ACCGGAGT | -0.202
CGGTCACG | 0.0659

Sequence | binding signal [E-score]
ACCTATTC | 0.0385
CCGGTCCG | -0.0631
CGTACGAC | -0.082
ACCGGTCG | -0.168
TAGTCTAA | 0.089
CTGTACTA | 0.112
TACCCCCA | -0.318
AGTCCTTG | -0.0751
AAAAGGCC | -0.0791
TTCAAGAA | -0.0452
GCAGCGCC | -0.314
ACCTGCTC | -0.309
CGTACAGA | 0.152
GGATGTGA | 0.0951
ACCTCGTC | -0.19
CTGTGCAC | 0.0294
ACTGTGTA | 0.128
CGGCGTTC | -0.211
GCAGTGCA | -0.00341
CGATGTCA | 0.0419
GTAATCGA | -0.031
CCATACGA | -0.0347
CAATCCCG | -0.105
GACTTTCA | -0.125
TCGTACGA | -0.131

Sequence | binding signal [E-score]
GGTCCTGA | -0.195
CAATACGA | 0.00373
GGCGCACC | -0.349
TGTTATAA | 0.228
GAATGCGC | -0.159
AGGAAAAA | -0.0677
GCATGATA | 0.164
GATCACGA | -0.0641
AAGCATAT | -0.0351
ATGCGAAC | -0.0522
CCAAATGC | 0.122
CCCTGCCG | -0.343
AAAGACAC | -0.0588
AATAGCGC | 0.0664
CTCCTGGC | -0.275
CAATCCGG | -0.187
ACCCGTTG | -0.214
AGCCCCCC | -0.429
ACACCGAG | -0.0983
GTCAGTAA | 0.00175
AAATATTG | 0.295
CGACCCTC | -0.225
AACCGAAG | 0.0965
CGGAAGGA | -0.314
CGCCATAA | 0.0158

Sequence | binding signal [E-score]
GCACGCAA | -0.218
AAGGAGCC | -0.383
AGCTGACG | -0.224
CTGTGGTC | -0.242
CGACAGCA | -0.204
CAGAAGTC | -0.0731
AACACGAC | -0.0443
AACACCGA | -0.0684
AATAGAAA | 0.371
AGTCGAGC | -0.23
GTTGTGGA | -0.0475
ACGACTAC | 0.134
CATTGAAC | 0.0412
CGAACCGA | -0.121
ACAGGAGG | -0.215
GCGCGACC | -0.257
CTAGGATC | 0.034
ACGTCGGC | -0.2
ACCCACTA | 0.0873
ATAGCCAG | -0.166
ATGGGGAC | -0.174
ATTTGCTC | 0.151
